# Source: paper PMC4336329 (PLoS ONE, 2015)
# The campaign covered roughly 310,000 compounds. About 2,200 (0.71%) showed an effect of 50% or more. The effect is printed as a negative number. The list shows a part of the results.
# Target: human ether-à-go-go-related gene (hERG) potassium channel (human, UniProt Q12809)
# Assay: primary screen, population patch clamp on CHO cells stably expressing hERG
# human ether-à-go-go-related gene (hERG) potassium channel, sequence (Q12809 whole entry, looked up): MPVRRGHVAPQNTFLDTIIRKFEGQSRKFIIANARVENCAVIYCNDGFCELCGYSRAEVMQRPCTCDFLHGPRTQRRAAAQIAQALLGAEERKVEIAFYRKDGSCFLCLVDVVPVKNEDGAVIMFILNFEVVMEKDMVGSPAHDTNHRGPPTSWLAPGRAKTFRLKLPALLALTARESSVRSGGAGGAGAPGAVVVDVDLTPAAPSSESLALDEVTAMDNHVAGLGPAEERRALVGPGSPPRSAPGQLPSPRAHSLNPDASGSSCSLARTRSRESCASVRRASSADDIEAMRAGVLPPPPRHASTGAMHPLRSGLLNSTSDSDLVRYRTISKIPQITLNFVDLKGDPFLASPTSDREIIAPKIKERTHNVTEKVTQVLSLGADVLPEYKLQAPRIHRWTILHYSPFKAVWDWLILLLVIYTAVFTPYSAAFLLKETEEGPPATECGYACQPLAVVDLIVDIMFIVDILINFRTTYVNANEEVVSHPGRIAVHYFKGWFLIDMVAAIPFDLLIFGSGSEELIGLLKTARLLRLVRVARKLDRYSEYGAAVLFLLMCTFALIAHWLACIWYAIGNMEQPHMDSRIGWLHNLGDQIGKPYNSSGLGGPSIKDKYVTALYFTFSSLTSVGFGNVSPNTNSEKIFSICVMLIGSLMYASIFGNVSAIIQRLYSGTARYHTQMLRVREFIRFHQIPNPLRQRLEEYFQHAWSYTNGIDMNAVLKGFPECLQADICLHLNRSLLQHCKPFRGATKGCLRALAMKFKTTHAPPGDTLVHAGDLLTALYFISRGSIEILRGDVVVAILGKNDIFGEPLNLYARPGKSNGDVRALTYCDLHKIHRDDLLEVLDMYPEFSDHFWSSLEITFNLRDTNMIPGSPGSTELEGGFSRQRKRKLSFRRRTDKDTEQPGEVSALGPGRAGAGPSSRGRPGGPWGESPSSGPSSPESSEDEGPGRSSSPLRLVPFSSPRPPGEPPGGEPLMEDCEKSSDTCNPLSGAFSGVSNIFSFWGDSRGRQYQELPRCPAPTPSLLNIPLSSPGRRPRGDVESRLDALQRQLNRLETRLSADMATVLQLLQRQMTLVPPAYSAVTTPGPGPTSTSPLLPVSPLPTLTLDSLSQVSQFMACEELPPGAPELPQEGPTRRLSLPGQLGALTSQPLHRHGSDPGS
row,SMILES,"hERG current change (%, negative = inhibition) at 1uM"
1,O=C(COC(=O)c1cc(S(=O)(=O)N2CCOCC2)c(Cl)cc1Cl)NC1CC1,12.3%
2,O=C(O)c1cccc(-n2nnnc2SCc2ccccn2)c1,-9.69%
3,COc1ccc(-c2c3c(=O)n(C)c(=O)n(C)c3cn2NC(C)=O)cc1,16%
4,COC(=O)CC1C(=O)NCCN1C(=O)CSc1nnc(Nc2ccc(OC)cc2)s1 (stereo not shown),1.83%
5,CCc1ccc(NC(=O)CCNS(=O)(=O)c2cccc3nsnc23)cc1,-0.137%
6,CCOC(=O)c1cc(CC)sc1NC(=O)c1ccc([N+](=O)[O-])c(N2CCOCC2)c1,10.6%
7,CCOc1cc(C2NC(=S)NC(C)=C2C(=O)Nc2ccc(OC)cc2)ccc1O (stereo not shown),7.01%
8,COCCCn1c(C(C)C)nc2oc3cc(OC)ccc3c(=O)c2c1=O,-0.0816%
9,CC1CCN(C(=O)C2CCCN(c3ncnc4c3nc3n4CCCCC3)C2)CC1 (stereo not shown),8.7%
10,CCOC(=O)c1[nH]c2ccc(Br)cc2c1NC(=O)CCN1CCOCC1,8.79%
11,CSc1n[nH]c(NCc2ccccc2)n1,7.68%
12,O=C(O)c1ccc(OCC2CCCO2)cc1 (stereo not shown),9.64%
13,C/C(=N\O)C(=O)NCCCNCCCN(C)C,16.3%
14,CCOC(=O)N1CCN(c2c(NCc3ccccc3OC)c(=O)c2=O)CC1,8.96%
15,C=CC(=O)NCNC(=O)C=C,9.05%
16,NC(=O)Cn1nnc(-c2ccc(CN3CCCCC3)cc2)n1,13.3%
17,Cc1cc(/C=C2\C(=N)N3C(SCc4ccccc4)=NSC3=NC2=O)c(C)n1Cc1ccccc1,1.49%
18,O=C1c2cccc3cc([N+](=O)[O-])cc(c23)C(=O)N1/N=C/c1ccc(O)cc1O,11.9%
19,COc1ccc(N(CC(=O)N/N=C/c2ccc(C(=O)O)cc2)S(=O)(=O)c2ccc(NC(C)=O)cc2)cc1,10.8%
20,COc1ccc(NC(=O)c2ccc(CN3CCc4ccccc4C3)cc2)c(OC)c1,12.3%
21,COc1ccc(C(c2nnnn2Cc2ccc(F)cc2)N2CCN(c3ccc(OC)cc3)CC2)cc1 (stereo not shown),-1.07%
22,CCCCCCC1CC(/C(C)=N\NC(N)=O)OC1=O (stereo not shown),-10.9%

row,SMILES,"hERG current change (%, negative = inhibition) at 1uM"
1,O=C(CSc1nnc2ccc(-c3ccc(F)cc3)nn12)NCC1CCCO1 (stereo not shown),-0.927%
2,Cc1nnc(SCC(=O)N2CC(=O)Nc3ccccc32)s1,2.13%
3,Cc1cccc(-n2c(-c3cccs3)nc3ccccc3c2=O)c1,9.53%
4,COc1ccc(Cl)cc1NC(=O)CN(c1ccccc1)S(=O)(=O)N(C)C,8.52%
5,Cc1cc(NC(=O)CSc2nnc(C3CC3)n2N)c([N+](=O)[O-])cc1C,24.8%
6,CCC(C)(C)C(=O)Nc1cc([N+](=O)[O-])ccc1F,11.6%
7,CN(CC(=O)Nc1ccc(Cl)c(C(F)(F)F)c1)C(=O)c1cc(-c2ccncc2)nc2ccccc12,10.9%
8,O=C(CN(Cc1ccccc1F)C(=O)Cn1nnc(-c2cccs2)n1)NCC1CCCO1 (stereo not shown),2.8%
9,CCCC(=O)N1CCN(c2ccc(NC(=O)c3sc4ccccc4c3Cl)cc2)CC1,12.2%
10,CNS(=O)(=O)c1cccc(C(=O)OCC(=O)Nc2ccc(Cl)cn2)c1,1.47%
11,COc1cc(C(C(=O)NC2CCCCC2)N(Cc2cccs2)C(=O)Cc2c[nH]c3ccccc23)cc(OC)c1OC (stereo not shown),12.3%
12,O=S1OC(c2ccccc2)c2cc(Cl)ccc21 (stereo not shown),7.85%
13,Cc1cc(=O)n(CCc2ccccc2)c(O)c1C#N,27.3%
14,O=C1CC[C@@H](O)CCN1CC[C@H](Sc1ccccc1)c1ccccc1,-0.164%
15,Cc1ccc(C)c(S(=O)(=O)N2CCCCC2CCNC(=O)C(=O)NC2CC2)c1 (stereo not shown),5.4%
16,O=C(CN1C(=O)C2C3C=CC(C3)C2C1=O)Nc1cccc2c1CCCC2 (stereo not shown),7.04%
17,O=C(CN(c1ccccc1F)S(=O)(=O)c1ccccc1)N1CCCCCC1,6.48%
18,Cn1nnnc1SCC(=O)Nc1ccccn1,8.35%
19,COc1ccc(C)cc1NC(=O)CN(C)S(=O)(=O)c1ccc2c(c1)n(C)c(=O)c(=O)n2C,18.4%
20,COc1cc(NS(=O)(=O)c2ccc(NC(=O)/C(=C/c3ccccc3Cl)NC(=O)c3ccccc3)cc2)nc(OC)n1,7.79%
21,CCCOc1ccc(C2C(=O)N(C3CCCCC3)CC(=O)N2C2CC2)cc1OC (stereo not shown),10.8%
22,CCCCc1ccc(S(=O)(=O)N/N=C(/C)c2ccncc2)cc1,11.9%

row,SMILES,"hERG current change (%, negative = inhibition) at 1uM"
1,O=C(C1CC1)N1CCCN(C(=O)C2CC2)CC1,20.1%
2,O=C(COc1ccc(Br)cc1)NCCCN1CCCC1=O,11%
3,COc1cc2nc(NCCCN3CCN(C)CC3)n3nc(-c4ccccc4)nc3c2cc1OC,5.18%
4,Cc1cc(OCC(=O)Nc2ccc(OCc3ccccc3)cc2)nc(C(C)C)n1,-11.1%
5,CC1Cc2ccccc2N1C(=O)CSc1nnnn1Cc1ccccc1 (stereo not shown),-4.73%
6,O=C(CN1C(=O)C2C3C=CC(C3)C2C1=O)NCc1ccccc1 (stereo not shown),3.17%
7,NC(=S)N/N=C1\CC(n2nnnc2-c2ccccc2Cl)C2COC1O2 (stereo not shown),-15.4%
8,Cn1c2ccccc2c2cc(/C=N/NC(=O)c3cc(O)ccc3O)ccc21,4.21%
9,COC(CNC(=O)Cn1ncc2ccsc2c1=O)OC,17.1%
10,CCN1C(=O)[C@@H]2[C@@H](c3ccc(-c4ccc(OC)cc4)c(OC)c3)N3CCC[C@@]3(C(=O)OC)[C@@H]2C1=O.O=C(O)C(F)(F)F,15.8%
11,CCOC(=O)C1CCN(S(=O)(=O)c2ccccc2[N+](=O)[O-])CC1,12.1%
12,CCn1nc(C)c(NC(=O)/C=C/c2ccc(OC)c(COc3ccc(Br)cc3)c2)c1C,-3.7%
13,Cc1cc(C)c2c(N)c(C(=O)c3ccc(Cl)cc3)sc2n1,12%
14,Cc1ccc(-n2nnnc2SCC(=O)c2cc(C)n(-c3cc(C)on3)c2C)cc1,7.56%
15,CC(=O)Nc1cccc(-c2cn3ccccc3n2)c1,-6.8%
16,CC(OC(=O)CCC(=O)c1ccccc1)C(=O)Nc1ccc(F)cc1 (stereo not shown),-299%
17,CCOC(=O)C1C(CC)NC(=S)NC1(C)O (stereo not shown),19.9%
18,COc1cc2[nH]c(=S)nc(Nc3ccc(NC(C)=O)cc3)c2cc1OC,3.3%
19,CC(=O)Nc1ccc(NC(=O)C2CCCN2S(=O)(=O)c2cccc3nsnc23)cc1 (stereo not shown),14.6%
20,Cn1nccc1NC(=O)CC(CC(=O)O)c1ccccc1 (stereo not shown),9.27%
21,CCOC(=O)C1CCCN(c2ncnc3c2cnn3-c2ccc(Cl)cc2)C1 (stereo not shown),-4.31%
22,COc1ccc(CC(=O)Nc2ccccc2N2CCCCC2)cc1OC,7.66%

row,SMILES,"hERG current change (%, negative = inhibition) at 1uM"
1,COC(=O)c1ccc(OC(=O)c2ccccc2F)cc1,17.2%
2,CC[C@]12CCCN3CCc4c(n(c5ccccc45)[C@@](O)(C(=O)OC)C1)[C@@H]32,-85.4%
3,CC1CCC(C(C)C)C(OCC(O)C[N+]2(C)CCCCC2)C1.[I-] (stereo not shown),6.56%
4,Cc1ccc2nc(Cl)c(CNCc3ccccc3)cc2c1,7.25%
5,Cc1ccc2cc(C#N)c(NCCNC(=O)C3CCC3)nc2c1C,5.66%
6,COc1cccc(NC(=O)CN(C)C(=O)CNC(=O)c2sc3ccccc3c2Cl)c1,11.5%
7,CC/C(=N\NC(=O)c1csc(C)c1C)c1cccs1,13%
8,Cc1ccc(CN2C(=NC(=O)CCC(=O)O)SC3CS(=O)(=O)CC32)cc1 (stereo not shown),9.14%
9,COc1ccc(S(=O)(=O)N2CCOCC2)cc1C(=O)NC1CCCCCC1,7.41%
10,COC(=O)CN(c1ccc(OCc2ccccc2)cc1)S(C)(=O)=O,5.03%
11,CCC(C(=O)OC)n1cnc2c(nnn2-c2ccccc2)c1=O (stereo not shown),-0.92%
12,COc1cccc(CNC(=O)CCc2ccc(OC)c(OC)c2)c1,8.83%
13,CCOc1ccc2nc(NC(=O)C3CCN(S(=O)(=O)c4cnc[nH]4)CC3)sc2c1,2.22%
14,COc1cc2c(cc1OC)/C(=C/C(=O)N1CCOCC1)NC(C)(C)C2.Cl,13.1%
15,COc1ccc(S(=O)(=O)N(C)CC(=O)NC2CC2)cc1,6.72%
16,COc1cccc(OC)c1C(=O)NCCc1ccccc1,12.6%
17,O=C1Nc2ccccc2C(=O)N2[C@H](c3ccccc3)[C@@H]3C(=O)N(Cc4ccccc4)C(=O)[C@@H]3[C@H]12,4.42%
18,CC1SC(c2ccc(Cl)cc2)NC1=O (stereo not shown),15%
19,O=Cc1c(N2CCOCC2)nc2ccccn2c1=O,13.3%
20,COC(=O)c1ccc(NC(=O)CN2CCN(c3ccc(Cl)cc3)CC2)cc1,14.5%
21,COCc1c(C(N)=O)nnn1-c1nonc1N,11%
22,C/C(=N\O)C(=O)NCC1CCNCC1,7.76%
